According to US20220348632A1 (Novartis, published 2022):

What was measured:
[1] = target: T1, recombinant human MICA*001 ligand (human, UniProt Q29983 24-307, Biotinylated for capture on the SA chip in the bivalent setup, according to our card. The site is not given.); assay: SPR (Biacore T200), bivalent setup: biotinylated ligand captured on SA chip, NKG2D-Fc as analyte
T1 construct: also called hMICA*001
T1 sequence: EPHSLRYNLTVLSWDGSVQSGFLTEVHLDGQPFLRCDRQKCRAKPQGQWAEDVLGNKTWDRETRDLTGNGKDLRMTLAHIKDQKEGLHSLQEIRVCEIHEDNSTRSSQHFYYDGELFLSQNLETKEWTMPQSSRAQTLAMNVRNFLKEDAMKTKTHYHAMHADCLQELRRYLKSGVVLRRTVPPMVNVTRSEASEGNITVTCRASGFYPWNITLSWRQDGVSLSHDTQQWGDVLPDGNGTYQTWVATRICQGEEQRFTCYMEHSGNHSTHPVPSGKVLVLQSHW
Procedure: (§1) A direct binding assay was performed to characterize the binding of the ADCC enhanced and wild-type NKG2D-Fc variants against recombinant human MICA*001 and MICB*001 ligands. The NKG2D-Fc variants were first used as ligand to characterize the binding of each NKG2D dimer to MICA and MICB (monovalent binding setup) and secondly as analyte in order to determine the effect on the binding when having two homodimers (bivalent binding setup).
(§2) For the bivalent binding setup, kinetic binding affinity constants (KD) were measured on streptavidin captured recombinant human NKG2D ligands using NKG2D-Fc variants as analyte. Measurements were conducted on a BIAcore® T200 (GE Healthcare, Glattbrugg, Switzerland) at room temperature. All proteins were diluted in 0.01 M HEPES pH 7.4, 0.15 M NaCl, 3 mM EDTA, 0.005% v/v Surfactant P20. The biotinylated NKG2D ligands were covalently captured on the flow cells of a SA research grade sensor chip (GE Healthcare, ref 29104992) using standard procedure according to the manufacturer's recommendation (GE Healthcare). To serve as reference, one flow cell was blank immobilized. Binding data were acquired by subsequent injection of analyte dilutions series on the reference and measuring flow cell. Zero concentration samples (running buffer only) were included to allow double referencing during data evaluation. For data evaluation, doubled referenced sensograms were used and dissociation constants (KD) analyzed.

[2] = target: T2, recombinant human MICB*001 ligand (human, UniProt Q29980 23-309, Biotinylated for capture on the SA chip in the bivalent setup, according to our card. The site is not given.); assay: as above
T2 construct: also called hMICB*001
T2 sequence: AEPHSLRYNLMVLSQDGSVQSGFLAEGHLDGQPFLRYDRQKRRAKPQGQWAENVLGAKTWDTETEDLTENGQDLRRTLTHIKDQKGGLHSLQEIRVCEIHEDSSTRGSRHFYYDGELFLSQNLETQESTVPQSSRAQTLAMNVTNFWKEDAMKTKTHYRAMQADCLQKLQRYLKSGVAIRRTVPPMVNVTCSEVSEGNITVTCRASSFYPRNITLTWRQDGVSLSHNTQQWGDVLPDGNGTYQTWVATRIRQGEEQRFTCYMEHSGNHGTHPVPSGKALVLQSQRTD
Procedure: as §1, §2

[3] = target: T3, human ULBP1 expressed on cells (human, UniProt Q9BZM6 26-216); assay: cell-based or functional assay
T3 sequence (looked up): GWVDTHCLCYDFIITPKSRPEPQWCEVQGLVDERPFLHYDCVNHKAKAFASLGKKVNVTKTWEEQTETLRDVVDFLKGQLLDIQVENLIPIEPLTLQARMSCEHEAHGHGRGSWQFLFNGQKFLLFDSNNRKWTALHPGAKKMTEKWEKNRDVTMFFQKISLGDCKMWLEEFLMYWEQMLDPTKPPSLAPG

[4] = target: T4, cynomolgus MICB*05 over-expressed on CT26.WT cells (cynomolgus); assay: cell-based or functional assay
[5] = target: T5, human MICA*008 over-expressed on CT26.WT cells (human); assay: cell-based or functional assay
T5 sequence (Q29983 whole entry, looked up): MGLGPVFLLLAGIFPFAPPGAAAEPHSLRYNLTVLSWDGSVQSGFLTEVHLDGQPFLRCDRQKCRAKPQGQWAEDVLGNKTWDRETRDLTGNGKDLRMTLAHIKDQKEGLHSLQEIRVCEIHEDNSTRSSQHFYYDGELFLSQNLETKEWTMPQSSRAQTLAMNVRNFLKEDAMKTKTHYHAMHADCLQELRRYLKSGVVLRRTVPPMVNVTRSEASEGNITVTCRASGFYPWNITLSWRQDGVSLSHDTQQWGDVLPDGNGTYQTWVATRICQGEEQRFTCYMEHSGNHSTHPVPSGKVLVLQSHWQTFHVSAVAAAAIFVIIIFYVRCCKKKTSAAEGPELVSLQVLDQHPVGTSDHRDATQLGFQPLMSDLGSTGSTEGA

[6] = target: human MICB*001 over-expressed on CT26.WT cells (human); assay: cell-based or functional assay
[7] = target: T6, human ULBP2 expressed on cells (human, UniProt Q9BZM5 26-217); assay: cell-based or functional assay
T6 sequence (looked up): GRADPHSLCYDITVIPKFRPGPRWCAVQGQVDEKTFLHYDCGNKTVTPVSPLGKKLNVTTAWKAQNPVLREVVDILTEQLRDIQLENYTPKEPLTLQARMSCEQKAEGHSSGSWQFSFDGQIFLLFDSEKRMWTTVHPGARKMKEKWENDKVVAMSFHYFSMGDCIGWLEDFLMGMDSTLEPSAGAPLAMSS

[8] = target: T7, cynomolgus MICA*08 over-expressed on CT26.WT cells (cynomolgus); assay: cell-based or functional assay
[9] = target: T6, human ULBP2 expressed on cells; assay: cell-based or functional assay; remark: listed apart in the source
[10] = target: T3, human ULBP1 expressed on cells; assay: cell-based or functional assay; remark: listed apart in the source
[11] = target: T4, cynomolgus MICB*05 over-expressed on …; assay: cell-based or functional assay; remark: listed apart in the source
[12] = target: T5, human MICA*008 over-expressed on …; assay: cell-based or functional assay; remark: listed apart in the source
[13] = target: human MICB*001 over-expressed on CT26.WT cells (human); assay: cell-based or functional assay; remark: listed apart in the source
[14] = target: T6, human ULBP2 expressed on cells; assay: cell-based or functional assay; remark: listed apart in the source
[15] = target: T7, cynomolgus MICA*08 over-expressed on …; assay: cell-based or functional assay; remark: listed apart in the source

- koff [1]: 0.000814 s⁻¹
- kon [1]: 4.83e+06 M⁻¹ s⁻¹
- Kd [2]: 0.89 nM
- koff [2]: 0.00281 s⁻¹
- kon [2]: 3.89e+06 M⁻¹ s⁻¹
- ADCC EC50 (pM), FcγRIIIa reporter gene assay [3]: 43 pM
- ADCC EC50 (pM), FcγRIIIa reporter gene assay [4]: 1680 pM
- ADCC EC50 (pM), FcγRIIIa reporter gene assay [5]: 30 pM
- ADCC EC50 (pM), FcγRIIIa reporter gene assay [6]: 30 pM
- ADCC EC50 (pM), FcγRIIIa reporter gene assay [7]: 93 pM
- ADCC EC50 (pM), FcγRIIIa reporter gene assay [8]: 18 pM
- ADCP EC50, phagocytosis by primary mouse macrophages (flow cytometry) [9]: < 1 nM
B1: HH8, hNKG2D(aa84-216)-RS(G3S)2-hNKG2D(aa84-216)-hFc1 (Fc fusion)
chain: NQEVQIPLTESYCGPCPKNWICYKNNCYQFFDESKNWYESQASCMSQNASLLKVYSKEDQDLLKLVKSYHWMGLVHIPTNGSWQWEDGSILSPNLLTIIEMQKGDCALYASSFKGYIENCSTPNTYICMQRTVRSGGGSGGGSNQEVQIPLTESYCGPCPKNWICYKNNCYQFFDESKNWYESQASCMSQNASLLKVYSKEDQDLLKLVKSYHWMGLVHIPTNGSWQWEDGSILSPNLLTIIEMQKGDCALYASSFKGYIENCSTPNTYICMQRTV[human IgG1 Fc left out here]
notes: Homodimer of two monomers joined through the Fc; also called NKG2D-Fc; HH8 with IgG1-Fc wt
- EC50 (ng/mL), hRGA killing (Human CD16 RGA) [10]: 5 ng/mL
- EC50 (ng/mL), hRGA killing (Human CD16 RGA) [11]: 194 ng/mL
- EC50 (ng/mL), hRGA killing (Human CD16 RGA) [12]: 3.5 ng/mL
- EC50 (ng/mL), hRGA killing (Human CD16 RGA) [13]: 35 ng/mL
- EC50 (ng/mL), hRGA killing (Human CD16 RGA) [14]: 10 ng/mL
- EC50 (ng/mL), hRGA killing (Human CD16 RGA) [15]: 2.1 ng/mL
